Assay results published in PubChem BioAssay AID624418 (National Center for Advancing Translational Sciences (NCATS), 2012).
Values joined by “and” are separate entries in the source; they are usually repeats but may differ in a detail not shown here. Identical values can stand only once. Screen size: about 410,000 compounds; about 530 (0.13%) were called active. This list was built around the results that the source calls inconclusive (neither active nor inactive); the mix of calls is not that of the screen. The call rests on the fitted dose curve; in most records, active means well fitted inhibition curve with a large enough effect; inconclusive means small, poorly fitted or top-dose-only effect, or another doubt; inactive means no such curve, though single readings can be large or run the other way. Potencies of inconclusive entries are doubtful fits and often do not repeat.

Assay: qHTS of GLP-1 Receptor Inverse Agonists: Cytotox Screen
Details: HEK293 cAMP-luciferase reporter cells, luminescence, 24 h; series mostly up to 38.3 µM
How it was run: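 MLSMR compounds, 24 hr on cells at 37 deg C/5% CO2; luminescence after luciferase reagent (12 min RT). Inhibition counted as the undesired cytotoxic outcome.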
Potency means the concentration at half of the fitted maximal effect.

SMILES	Potency
COc1cccc(CNC(=O)CC(c2ccc(F)cc2)N2Cc3ccccc3C2=O)c1 (stereo unspecified)	inactive
CC(C)c1ccc(NC(=O)CCCc2nc(-c3ccc(Cl)cc3)no2)cc1	inactive
Cc1cc(=O)[nH]c(N=N/C(=N/Nc2ccccc2C)c2ccccc2)n1	inconclusive: 1.26 µM [inhibitor, full curve, poor fit]
O=[N+]([O-])c1ccc(Nc2ccccc2)c2nonc12	inconclusive: 28.2 µM [inhibitor, single point]
O=C(Nc1c(C(=O)N2CCN(c3ccccc3F)CC2)oc2ccccc12)c1ccc(Br)o1	inactive
CCOc1ccccc1/C=N/Nc1ccnc(=O)[nH]1	inconclusive: 14.1 µM [inhibitor, single point]
CN(C)c1nc(-c2ccccn2)nnc1-c1ccccc1	inconclusive: 10 µM [inhibitor, single point]
CCC(C)CCN1C(Nc2ccccc2)=NC[C@@H]1Cc1ccccc1 (stereo partly specified)	inconclusive: 8.91 µM [inhibitor, partial curve, poor fit]
COc1ccccc1-c1sc2cc3c(cc2c1-c1ccc(OCCN2CCCCC2)cc1)OCO3	inconclusive: 31.6 µM [inhibitor, partial curve, poor fit]
Cc1cnn(CCC(=O)NNC(=S)Nc2cccc(Cl)c2)c1	inconclusive: 1 µM [inhibitor, full curve, poor fit]
CC(Oc1ccc(Br)cc1)C(=O)N(Cc1nc(-c2ccccc2)no1)C(C)C (stereo unspecified)	inactive
Cc1ccc(S(=O)(=O)c2c(C)nn(C(C)(C)C)c2OC(=O)C2CCCC2)cc1	inconclusive: 22.4 µM [inhibitor, single point]
COc1ccc(CN(C(C)=O)c2cccc(C)c2C)cc1	inconclusive: 11.2 µM [inhibitor, partial curve]
Cc1cccc(OCC(=O)NC(C)C(=O)N/N=C/c2c(OCc3ccccc3)ccc3ccccc23)c1 (stereo unspecified)	inconclusive: 31.6 µM [inhibitor, single point]
S=C(Nc1ccccn1)NC1CCCC1	inconclusive: 28.2 µM [inhibitor, single point]
Cc1nn(CC(=O)Nc2ccc(Br)cc2F)c(=O)c2cccn12	inactive
Cn1nnnc1SCc1csc(Nc2ccccc2)n1	inactive
COc1cccc(C2c3cc4c(cc3OC(N3CCOCC3)C2C)OCO4)c1O (stereo unspecified)	inconclusive: 11.2 µM [inhibitor, partial curve]
CCOc1ccccc1N1CN(C2CCCCC2)CNC1=S	inconclusive: 11.2 µM [inhibitor, single point]
COC(=O)c1c(NC(=O)CN2CCN(C(=O)c3ccco3)CC2)c2cc(C)ccc2n1C	inconclusive: 7.08 µM [inhibitor, partial curve, poor fit]
Clc1cc(Br)ccc1OCCCNCc1ccccc1	inconclusive: 20 µM [inhibitor, single point]

SMILES	Potency
COc1ccccc1NC(=O)c1cc2c(n(-c3ccc(C)cc3)c1=O)CC(C)(C)CC2=O	inactive
c1ccc(-c2cc(-c3nnc4n3N=C(c3ccc5ccccc5c3)CS4)[nH]n2)cc1	inconclusive: 10 µM [inhibitor, partial curve]
COc1cc(C2c3cc4c(cc3OC(N3CCCC3)C2C)OCO4)cc(OC)c1O (stereo unspecified)	inconclusive: 10 µM [inhibitor, partial curve, poor fit]
COCCOC(=O)c1[nH]c2c(c1C)C(=O)CC(c1ccccc1)C2 (stereo unspecified)	inconclusive: 1 µM [inhibitor, full curve, poor fit]
Nc1cccc(CCc2nc3cc4ccccc4cc3[nH]2)c1	inconclusive: 3.98 µM [inhibitor, partial curve]
COc1ccccc1-c1sc2cc3c(cc2c1-c1ccc(O)cc1)OCO3	inconclusive: 11.2 µM [inhibitor, partial curve, poor fit]
Cc1cccc(C)c1Nc1c(-c2ccccn2)nc2ccccn12	inconclusive: 28.2 µM [inhibitor, single point]
Cc1cccc(NC(=O)C(Cc2ccccc2)N2Cc3ccccc3C2=O)c1C (stereo unspecified)	inactive
Cc1noc(C)c1CN1C(=O)c2cccc([N+](=O)[O-])c2C1=O	inconclusive: 10 µM [inhibitor, partial curve]
COc1ccc(C)cc1NC(=O)C1CCN(S(C)(=O)=O)CC1	inactive
O=C(c1ccco1)N1CCC(c2nc3c(nnn3Cc3c(Cl)cccc3Cl)c(=O)[nH]2)CC1	inactive
COc1ccc(S(=O)(=O)Cc2ccc(C(=O)N3CCN(c4cc(Cl)ccc4C)CC3)o2)cc1	inconclusive: 28.2 µM [inhibitor, single point]
CSc1cccc(NC(=S)N2CCC(N(C)C3CCCCCC3)CC2)c1	inconclusive: 0.891 µM [inhibitor, full curve, poor fit]
Cc1ccnc(NC(=S)NC(=O)c2ccco2)c1	inconclusive: 22.4 µM [inhibitor, single point]
COc1cc2nc(Nc3ccc(C)c(C)c3)nc(N)c2cc1OC	inconclusive: 28.2 µM [inhibitor, single point] and inconclusive: 20 µM [inhibitor, single point]
COc1ccc(OC)c(S(=O)(=O)N2CCC(C(=O)Nc3cc(C)ccc3C)CC2)c1	inconclusive: 1 µM [inhibitor, full curve, poor fit]
COc1cc(C(=O)NNC(=O)c2ccccc2OCc2c(C)noc2C)cc(OC)c1OC	inconclusive: 28.2 µM [inhibitor, partial curve, poor fit]
C=CCn1c(SCC(=O)Nc2sccc2C(N)=O)nc2sc(CC)cc2c1=O	inconclusive: 28.2 µM [inhibitor, single point]
COc1ccc(C(=O)c2c(C(F)(F)F)oc3c2C(=O)c2ccccc2C3=O)cc1OC	inconclusive: 7.08 µM [inhibitor, partial curve, poor fit]
CC1CCCCC1NC(=O)/C(C#N)=C/c1ccc2c(c1)OCCO2 (stereo unspecified)	inconclusive: 28.2 µM [inhibitor, single point]
